± gives the standard deviation of the averaged measurements. The list shows a part of the results.

The test system of the assay is PfAP2-I AP2 domain 3 (GST-tagged). In words: gcPBM binding intensity (ln(normalized median fluorescence intensity)); higher = stronger DNA binding. The procedure, abridged: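 An Agilent 4 × 180k array carrying primer-extended double-stranded 36-bp intergenic genomic probes and negative controls received GST-tagged P. falciparum DNA-binding domains expressed in E. coli, about 25 μg on average, for 1 h. The binding buffer contained 1× PBS, 1% milk, 0.2 mg/ml BSA, 0.5% salmon testes DNA and 0.03% Triton X-100. Binding intensity is the top Masliner-normalised natural-log median intensity across replicate spots of either probe orientation, read after Alexa488 anti-GST antibody staining and a 488 nm scan.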
With “AAATTGGGGCTTGTTACACACTTAGTGGGAGTTCTA [CACACA_site4485]”, the “gcPBM binding intensity (ln)” value is 8.15 ± 0.58.
For the sequence “AACATATATATATATACATGCATATGAACAACGAAT [TGCATGCA_site93]”, the “gcPBM binding intensity (ln)” value amounted to 8.09 ± 0.73.
On to “TGTATAAATATAATCACACATATATATATATATATA [CACACA_site4365]”, for which the “gcPBM binding intensity (ln)” value is 9.32 ± 0.53.
In the case of “TATAAAAATGTTTACACACACACATAAATATATTTT [CACACA_site2512]”, the “gcPBM binding intensity (ln)” value is 7.79 ± 0.5.
For “TTTTTTTTTTTTCTGAGTACGAAAAATAGAGATAGA [XGTACX_site3825]”, the “gcPBM binding intensity (ln)” value stood at 8.04 ± 0.45.
Take “AAGTTACAAAATCAAAAGGAAAAAATATAAAATAAT [CACACA_negctrl_site561]”: the “gcPBM binding intensity (ln)” value was 7.63 ± 0.69.
Consider “CAAGAAAATTGACACACACACATATTTATATTTATA [CACACA_site7766]”, for which the “gcPBM binding intensity (ln)” value stood at 7.66 ± 0.56.
For “TTTTTTTAATTAGTTTGTACATATTGTTATAATATA [XGTACX_site6294]”, the “gcPBM binding intensity (ln)” value is 8.04 ± 0.057.
On to “CATGTTATGATTCCATGTACTTATAGCATTAAAAAA [XGTACX_site8939]”, for which the “gcPBM binding intensity (ln)” value is 7.81 ± 0.42.
Take “AAAAAAAAATACATATGTACTTATGTATAATGTTGT [XGTACX_site8104]”: the “gcPBM binding intensity (ln)” value was 7.72 ± 0.31.
For the sequence “ATTATACCACCCGATATACACACTTGTAGACATCTT [CACACA_site7944]”, the “gcPBM binding intensity (ln)” value turned out to be 8.22 ± 0.42.
As to “TATATTAAACCATGTAGTACCTTGAATAAATATTAT [XGTACX_site8254]”, the “gcPBM binding intensity (ln)” value was 7.81 ± 0.28.
“ATAAAAAGGAGACACACACACACACGCATATTTATA [CACACA_site6551]”: the “gcPBM binding intensity (ln)” value was 7.97 ± 0.4.
Next, “TTAATTACATGTAATTGTACTTAATTATAAGACATT [XGTACX_site464]”: 7.71 ± 0.28; “TATTACTTATAAATTACACACAAATGATTGAACATT [CACACA_site2259]”: 7.59 ± 0.57.
As for “TATACCTTTTTATTCACACATATATGTCATATGTCA [CACACA_site5423]”, the “gcPBM binding intensity (ln)” value was found to be 8.03 ± 0.52.
Regarding “TTAAAATAAAGAAAATGTACATAAATAAAAATAAAG [XGTACX_site2280]”, the “gcPBM binding intensity (ln)” value worked out at 8.35 ± 0.45.
Regarding “TTTTACCTAAATATCACACATATTTAAATATATATA [CACACA_site5597]”, the “gcPBM binding intensity (ln)” value is 7.89 ± 0.55.
As for “CAACTAATATTAAAACGTACATAAATATTTAACAGA [XGTACX_site625]”, the “gcPBM binding intensity (ln)” value was found to be 7.67 ± 0.57.
For “ATCACATATATATATAATATATATATGTATATATTT [GTGCAC_negctrl_site249]” the value was 7.34 ± 0.41; for “AAAAAAAATATATATGCACACACAAAAAAACAAATT [CACACA_site8349]”, 9.3 ± 0.22.
In the case of “ATATATATATATATATGTACATATATTTTTATTTAT [XGTACX_site3508]”, the “gcPBM binding intensity (ln)” value was found to be 9.19 ± 0.42.
Next, “AGTGATAATTTAAAAAGTACAAATGAAATTTAGCTA [XGTACX_site3375]”: 7.63 ± 0.47; “TATATATAAAGCAGTACACACATTTATTTTAGATAC [CACACA_site3387]”: 8.31 ± 0.4.
For “AGAGAGAAAGCTATAACATGCAAAAATTTTTAGAAC [TGCATGCA_site420]”, the “gcPBM binding intensity (ln)” value was found to be 8.08 ± 0.79.
Take “ATACAAATAAAAAAAAAAATTATAAAATTATAAAAT [CACACA_negctrl_site914]”: the “gcPBM binding intensity (ln)” value came out at 7.41 ± 0.4.
Next, “CATATATATATATATTGTACACATTTTTTATAAAAA [XGTACX_site2526]”: 8.17 ± 0.31.
Turning to “TATTTGCAATATAACACACACAAAAAAAGACTCGGA [CACACA_site6891]”, the “gcPBM binding intensity (ln)” value was 8.32 ± 0.54.
Take “AATTATACATTATATTGTACATATGAATAATTAAAA [XGTACX_site6829]”: the “gcPBM binding intensity (ln)” value amounted to 7.61 ± 0.54.
For “TATATGTAATATATATGTACGTATAATATAATATTG [XGTACX_site8620]” the value was 7.93 ± 0.48.
With “TATATAATACAAAAGGGTACATTAACATATTATATA [XGTACX_site3196]”, the “gcPBM binding intensity (ln)” value turned out to be 7.76 ± 0.5.
Regarding “CTATTATCGGTTCCTACACACAAATATAGATGTCTA [CACACA_site7651]”, the “gcPBM binding intensity (ln)” value came out at 7.81 ± 0.54.
Consider “TTTCACATATATATGGTGCATATTTTATGTGTAAAT [GTGCAC_site9937]”, for which the “gcPBM binding intensity (ln)” value worked out at 9.95 ± 0.52.
With “TTTGTAACTTCTTTCACACATATATATATATATATA [CACACA_site5603]”, the “gcPBM binding intensity (ln)” value was determined as 9.59 ± 0.42.
On to “GTGTGCAAAAATTGTTGTACATTATATATAAAAAAA [XGTACX_site3246]”, for which the “gcPBM binding intensity (ln)” value amounted to 9.41 ± 0.34.
For the sequence “AACAAAAAAAAAAAATGTACATATATATAATATATT [XGTACX_site3829]”, the “gcPBM binding intensity (ln)” value was 7.5 ± 0.36.
For the sequence “CCACAAGCAGCGGAAACATGCATATGTTGAAATAAT [TGCATGCA_site610]”, the “gcPBM binding intensity (ln)” value is 7.76 ± 0.73.
For “TCATTTCACAAACACACACACACAATATATTTCCTT [CACACA_site3905]” the value was 8.09 ± 0.54; for “TAATAATATTATTAATGTACAAATATATATACATAT [XGTACX_site7348]”, 7.58 ± 0.48.
Next, “TATATATATATATATTGTACCCTTTTCAAACTTCTC [XGTACX_site2812]”: 9.22 ± 0.29; “GTTAAGAATATGTGTACACATATACATAAATACATA [CACACA_site4254]”: 8.09 ± 0.35; “ACCTCACAAATGAATACACACAAACATATATATTTA [CACACA_site4976]”: 7.87 ± 0.71.
Consider “AATATCATCCTTTTTTTTTATAAAATTTAAAATATA [CACACA_negctrl_site844]”, for which the “gcPBM binding intensity (ln)” value amounted to 7.82 ± 0.61.
For “TATAAGAGAATATATACACACAAAAATAAATACAGT [CACACA_site5000]”, the “gcPBM binding intensity (ln)” value is 8.2 ± 0.67.

Values taken from the supplement of paper PMC11417369.
